In the RNAGym collection of RNA variant scans (doi:10.7554/elife.90254):
The source gives no read counts; variants with many changes may rest on few reads.

B1: LINE1-mini (parent)
chain: GGCAGAGCUCAACACAGCGUGGCAAAGUGGCUGUGGCUAGACUGCC

Variants of: B1
Experiment: self-cleavage, relative activity (ratio to wild type); higher = more cleavage; in vitro, sequencing; the parent is a self-cleaving ribozyme

Row | Variant | self-cleavage
1 | A12C C13A C23U | 0.03
2 | A12C C13G G22C G29C C31G | 0.01
3 | A11U G21C G29C U34C C45A | 0.02
4 | A12C A26G G36U | 0.02
5 | A12C G19A G21U U43C | 0
6 | A11U G30C G44A | 0.03
7 | A12C G17A C23A C42G C46U | 0.01
8 | A12C C23A G33A | 0.04
9 | A11U C15U A25C G44A C46U | 0
10 | A12C C23U G30C C46G | 0.01
11 | A12C C13G A14U G29A U38A | 0.05
12 | A11U G36A G40U | 0
13 | A11U C37U C45U | 0.02
14 | A12C A14U A16G G21U G36U | 0.01
15 | A12C A14C U28C | 0.03
16 | A12C C18G U28G G33C G36A | 0
17 | A11U C13G G44U | 0.04
18 | A11U G17C C37U | 0.04
19 | A11U U20G G36C A39U | 0.01
20 | A12C C13A U20A C37G A41C C45G | 0.01
21 | A11U A14G A41G | 0.02

Row | Variant | self-cleavage
22 | A12C C13G G17C C31A | 0.02
23 | A12C C15A G29U G33U | 0.04
24 | A11U G35C U38C | 0.04
25 | A11U G22A U38A U43G C46U | 0
26 | A11U G29U G40U C45U | 0.02
27 | A11U C15A C31U | 0.03
28 | A11U A16C G22A | 0.01
29 | A11U U34A G40U C42A | 0
30 | A11U A26U C37A A41U | 0
31 | A11U C18G U28A C31U | 0.01
32 | A12C A14U G40C A41C | 0
33 | A11U A24U C37A | 0.01
34 | A12C C31A U38C G40U | 0.02
35 | A12C A14U C31A G35A G44A | 0.04
36 | A11U G17A G44U | 0.02
37 | A11U G29U G36C | 0.02
38 | A11U C18A G35A G36U | 0.01
39 | A11U C13A C15A A16U | 0.02
40 | A11U C15A G19U U32C | 0.01
41 | A12C A14U C15G G21U | 0.04
42 | A11U C42A G44A | 0.03

Row | Variant | self-cleavage
43 | A12C A26C A39C | 0
44 | A11U U20C C23A | 0.09
45 | A11U G22A C45A | 0.03
46 | A12C A26G A41U | 0
47 | A11U U32C G36C | 0.04
48 | A12C A14C G17C C18U G21U | 0.02
49 | A11U C13U A39U | 0.02
50 | A11U G27A G33C | 0.01
51 | A11U C13U G22U A26U | 0.04
52 | A11U C15U C42U U43G | 0.04
53 | A11U A26U G33C | 0.02
54 | A12C A16G U28A C42G | 0.03
55 | A11U A14U C42A G44C | 0.03
56 | A11U C15U G40A | 0.02
57 | A12C C23U A39G G40A G44U | 0.01
58 | A12C A25G G35U | 0
59 | A11U C15A G35A U38G | 0.01
60 | A12C A14G G17U | 0.01
61 | A11U G36U G44U C46U | 0
62 | A12C C23U G27U G40U | 0.04
63 | A11U C13G C18U G22A C23A C31U A39U | 0.01

Row | Variant | self-cleavage
64 | A12C C13U C18G G19U A26U G27A | 0.14
65 | A12C A24G G30C C42U | 0
66 | A11U G35U C45A C46U | 0.01
67 | A11U A16G G29C G30A | 0.05
68 | A12C C15A G27C C45G | 0.02
69 | A12C G19A A26G C37U A41C | 0.01
70 | A12C G17C G27U G29U | 0.03
71 | A11U C13U C42A | 0.03
72 | A12C C15A G19C | 0.09
73 | A12C C15U G21A | 0.03
74 | A12C C13G C31G G33C A41G | 0.01
75 | A12C C15A G17U A26G G33U G35A | 0.02
76 | A11U G17U C37U | 0.04
77 | A11U C18A G36U A41G | 0.02
78 | A12C C42G C46U | 0
79 | A12C C13A C15G G17A A26G U32A A39C | 0.07
80 | A12C G17U C23U C45G | 0.04
81 | A11U C31U U38G G44U | 0.01
82 | A12C C23A A39U C42U | 0.01
83 | A12C C13G C15A A26G A39G A41U | 0.02
84 | A11U C13A C31A | 0.02
